Data published in publication PMC12820563, “FoxP3 forms a head-to-head dimer in vivo and stabilizes its multimerization on adjacent microsatellites”.
The list shows a part of the results.

The sequences below were run against T1, MBP-FoxP1dN (Mus musculus, UniProt P58462 326-579) (assay: PD-seq (MBP pull-down with sequencing); 20 mM Tris-HCl pH 7.5, 100 mM NaCl, 1.5 mM MgCl2, 0.4 uM protein, 0.1 uM dsDNA library, 30 min, room temperature, amylose pull-down; high values mean tight binding). Settings: protein: recombinant; tags: His6-MBP; chain copies: 2; dsDNA, one strand shown.
T1 sequence: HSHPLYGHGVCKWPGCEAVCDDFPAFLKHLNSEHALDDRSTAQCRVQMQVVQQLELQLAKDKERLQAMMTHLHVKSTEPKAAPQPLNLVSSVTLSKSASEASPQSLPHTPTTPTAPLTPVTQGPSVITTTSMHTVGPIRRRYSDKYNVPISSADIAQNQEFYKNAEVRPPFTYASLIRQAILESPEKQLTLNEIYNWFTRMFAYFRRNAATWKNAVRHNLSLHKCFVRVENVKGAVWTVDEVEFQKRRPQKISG
Procedure, shortened: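 Binding is reads-per-million enrichment of pull-down over input, with replicates pooled. It comes from 30 min room-temperature incubation in Tris pH 7.5 buffer with NaCl and MgCl2 of 0.4 µM His6-MBP-tagged, N-terminally truncated mouse FoxP3 or FoxP1 fragment from E. coli with 0.1 µM Klenow-filled degenerate double-stranded DNA library, followed by amylose resin capture, three washes and Illumina sequencing of the released DNA.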

Point of comparison: “GATGATTGTTCTCCCAGCTGATGAATTGGTCCACTCGAGTAAACAAATTTTCCTAATCTTTCTGTTCAAGCGCCATCTAC”, binding signal 0.898 RPM ratio (pull-down/input). Against it:
- GATGATTGTTCTCCCAGCTGATGAATTGTTTCGGTCGAGTAAACAAATTTTCCTAATCTTTCTGTTCAAGCGCCATCTAC — higher, 1.18 RPM ratio (pull-down/input)
- GATGATTGTTCTCCCAGCTGATGAATTAAGTGTTTCGAGTAAACAAATTTTCCTAATCTTTCTGTTCAAGCGCCATCTAC — higher, 1.09 RPM ratio (pull-down/input)
- GATGATTGTTCTCCCAGCTGATGAATTAGCAATCTCGAGTAAACAAATTTTCCTAATCTTTCTGTTCAAGCGCCATCTAC — higher, 0.915 RPM ratio (pull-down/input)
- GATGATTGTTCTCCCAGCTGATGAATTCCGCATCTCGAGTAAACAAATTTTCCTAATCTTTCTGTTCAAGCGCCATCTAC — higher, 1.17 RPM ratio (pull-down/input)
- GATGATTGTTCTCCCAGCTGATGAATTTAATACGTCGAGTAAACAAATTTTCCTAATCTTTCTGTTCAAGCGCCATCTAC — higher, 0.958 RPM ratio (pull-down/input)
- GATGATTGTTCTCCCAGCTGATGAATTGTGTCATTCGAGTAAACAAATTTTCCTAATCTTTCTGTTCAAGCGCCATCTAC — higher, 1.29 RPM ratio (pull-down/input)
- GATGATTGTTCTCCCAGCTGATGAATTAAATATTTCGAGTAAACAAATTTTCCTAATCTTTCTGTTCAAGCGCCATCTAC — higher, 1.14 RPM ratio (pull-down/input)
- GATGATTGTTCTCCCAGCTGATGAATTAGCATTCTCGAGTAAACAAATTTTCCTAATCTTTCTGTTCAAGCGCCATCTAC — higher, 1.16 RPM ratio (pull-down/input)
- GATGATTGTTCTCCCAGCTGATGAATTTAATTATTCGAGTAAACAAATTTTCCTAATCTTTCTGTTCAAGCGCCATCTAC — higher, 1.16 RPM ratio (pull-down/input)
- GATGATTGTTCTCCCAGCTGATGAATTAACCACCTCGAGTAAACAAATTTTCCTAATCTTTCTGTTCAAGCGCCATCTAC — lower, 0.882 RPM ratio (pull-down/input)
- GATGATTGTTCTCCCAGCTGATGAATTCATTTTTTCGAGTAAACAAATTTTCCTAATCTTTCTGTTCAAGCGCCATCTAC — higher, 0.907 RPM ratio (pull-down/input)
- GATGATTGTTCTCCCAGCTGATGAATTTGCAAACTCGAGTAAACAAATTTTCCTAATCTTTCTGTTCAAGCGCCATCTAC — higher, 1.06 RPM ratio (pull-down/input)
- GATGATTGTTCTCCCAGCTGATGAATTGGATCGATCGAGTAAACAAATTTTCCTAATCTTTCTGTTCAAGCGCCATCTAC — lower, 0.817 RPM ratio (pull-down/input)
- GATGATTGTTCTCCCAGCTGATGAATTGAACTATTCGAGTAAACAAATTTTCCTAATCTTTCTGTTCAAGCGCCATCTAC — lower, 0.897 RPM ratio (pull-down/input)
- GATGATTGTTCTCCCAGCTGATGAATTCACATTATCGAGTAAACAAATTTTCCTAATCTTTCTGTTCAAGCGCCATCTAC — higher, 1.03 RPM ratio (pull-down/input)
- GATGATTGTTCTCCCAGCTGATGAATTGACCCCTTCGAGTAAACAAATTTTCCTAATCTTTCTGTTCAAGCGCCATCTAC — lower, 0.88 RPM ratio (pull-down/input)
- GATGATTGTTCTCCCAGCTGATGAATTACGCTGGTCGAGTAAACAAATTTTCCTAATCTTTCTGTTCAAGCGCCATCTAC — higher, 0.942 RPM ratio (pull-down/input)
- GATGATTGTTCTCCCAGCTGATGAATTGAGTTACTCGAGTAAACAAATTTTCCTAATCTTTCTGTTCAAGCGCCATCTAC — higher, 0.958 RPM ratio (pull-down/input)
- GATGATTGTTCTCCCAGCTGATGAATTCCCGTACTCGAGTAAACAAATTTTCCTAATCTTTCTGTTCAAGCGCCATCTAC — lower, 0.842 RPM ratio (pull-down/input)
- GATGATTGTTCTCCCAGCTGATGAATTGGGACTATCGAGTAAACAAATTTTCCTAATCTTTCTGTTCAAGCGCCATCTAC — lower, 0.879 RPM ratio (pull-down/input)
- GATGATTGTTCTCCCAGCTGATGAATTAAAGCGCTCGAGTAAACAAATTTTCCTAATCTTTCTGTTCAAGCGCCATCTAC — higher, 0.953 RPM ratio (pull-down/input)
- GATGATTGTTCTCCCAGCTGATGAATTATTCCATTCGAGTAAACAAATTTTCCTAATCTTTCTGTTCAAGCGCCATCTAC — higher, 1.1 RPM ratio (pull-down/input)
- GATGATTGTTCTCCCAGCTGATGAATTTATTGCTTCGAGTAAACAAATTTTCCTAATCTTTCTGTTCAAGCGCCATCTAC — higher, 1.21 RPM ratio (pull-down/input)
- GATGATTGTTCTCCCAGCTGATGAATTTCTGCCCTCGAGTAAACAAATTTTCCTAATCTTTCTGTTCAAGCGCCATCTAC — lower, 0.838 RPM ratio (pull-down/input)
- GATGATTGTTCTCCCAGCTGATGAATTTAACGAGTCGAGTAAACAAATTTTCCTAATCTTTCTGTTCAAGCGCCATCTAC — lower, 0.819 RPM ratio (pull-down/input)
- GATGATTGTTCTCCCAGCTGATGAATTAGGCCTTTCGAGTAAACAAATTTTCCTAATCTTTCTGTTCAAGCGCCATCTAC — lower, 0.852 RPM ratio (pull-down/input)
- GATGATTGTTCTCCCAGCTGATGAATTTAGTCGGTCGAGTAAACAAATTTTCCTAATCTTTCTGTTCAAGCGCCATCTAC — lower, 0.848 RPM ratio (pull-down/input)
- GATGATTGTTCTCCCAGCTGATGAATTCCAGTACTCGAGTAAACAAATTTTCCTAATCTTTCTGTTCAAGCGCCATCTAC — lower, 0.857 RPM ratio (pull-down/input)
- GATGATTGTTCTCCCAGCTGATGAATTGGGGGGGTCGAGTAAACAAATTTTCCTAATCTTTCTGTTCAAGCGCCATCTAC — lower, 0.753 RPM ratio (pull-down/input)
- GATGATTGTTCTCCCAGCTGATGAATTGCAGAGATCGAGTAAACAAATTTTCCTAATCTTTCTGTTCAAGCGCCATCTAC — higher, 1.03 RPM ratio (pull-down/input)
